Test results published in article PMC4807272, “Structural Determinants of Oligomerization of the Aquaporin-4 Channel*” (The Journal of Biological Chemistry, 2016).

B1: wild-type AQP4 tagged with Venus or with mTurquoise2 (FRET pair, co-transfected) (natural protein)
chain: not shown
notes: aquaporin-4 (AQP4), human; M1 isoform expressed from the wild-type construct in HEK293 (323 residues); Two differently tagged copies of one protein, written as one molecule; each chain carries one of the two tags, not both; With AQP1-Venus only the mTurquoise2 copy was present; The text speaks of the C-terminal tails, so C-terminal tags are surmised; also called AQP4-Venus; AQP4-mTurquoise2; …
B2: AQP4 loop D1 compound mutant tagged with Venus or with mTurquoise2 (FRET pair) (natural protein)
chain: not shown
notes: aquaporin-4 (AQP4), human; M1 isoform (323 residues); Two differently tagged copies, written as one molecule; each chain carries one of the two tags; source: HEK293, transiently co-transfected, in live cells
B3: AQP4 loop D2 compound mutant tagged with Venus or with mTurquoise2 (FRET pair) (natural protein)
chain: not shown
notes: as for B2
B4: wild-type human AQP4, C-terminal GFP fusion (natural protein)
chain: MSDRPTARRWGKCGPLCTRENIMVAFKGVWTQAFWKAVTAEFLAMLIFVLLSLGSTINWGGTEKPLPVDMVLISLCFGLSIATMVQCFGHISGGHINPAVTVAMVCTRKISIAKSVFYIAAQCLGAIIGAGILYLVTPPSVVGGLGVTMVHGNLTAGHGLLVELIITFQLVFTIFASCDSKRTDVTGSIALAIGFSVAIGHLFAINYTGASMNPARSFGPAVIMGNWENHWIYWVGPIIGAVLAGGLYEYVFCPDV[… about 60 residues …]
notes: aquaporin-4 (AQP4), human cDNA in pDEST47; only the M1 isoform was expressed from the construct (323 residues); An untagged construct (stop codons in the GFP linker) was also made; also called AQP4 WT; AQP4-GFP; source: HEK293, transiently transfected, in Triton X-100 lysate; not shown: GFP, C-terminal, kept
B5: AQP4 V185A, C-terminal GFP fusion (natural protein, human)
chain: MSDRPTARRWGKCGPLCTRENIMVAFKGVWTQAFWKAVTAEFLAMLIFVLLSLGSTINWGGTEKPLPVDMVLISLCFGLSIATMVQCFGHISGGHINPAVTVAMVCTRKISIAKSVFYIAAQCLGAIIGAGILYLVTPPSVVGGLGVTMVHGNLTAGHGLLVELIITFQLVFTIFASCDSKRTDATGSIALAIGFSVAIGHLFAINYTGASMNPARSFGPAVIMGNWENHWIYWVGPIIGAVLAGGLYEYVFCPDV[… about 60 residues …]
notes: aquaporin-4 (AQP4), human cDNA in pDEST47; M1 isoform (323 residues); source: HEK293, transiently transfected, in Triton X-100 lysate; not shown: GFP, C-terminal, kept
B6: AQP4 T186A, C-terminal GFP fusion (natural protein, human)
chain: MSDRPTARRWGKCGPLCTRENIMVAFKGVWTQAFWKAVTAEFLAMLIFVLLSLGSTINWGGTEKPLPVDMVLISLCFGLSIATMVQCFGHISGGHINPAVTVAMVCTRKISIAKSVFYIAAQCLGAIIGAGILYLVTPPSVVGGLGVTMVHGNLTAGHGLLVELIITFQLVFTIFASCDSKRTDVAGSIALAIGFSVAIGHLFAINYTGASMNPARSFGPAVIMGNWENHWIYWVGPIIGAVLAGGLYEYVFCPDV[… about 60 residues …]
notes: as for B5
B7: AQP4 G187A, C-terminal GFP fusion (natural protein, human)
chain: MSDRPTARRWGKCGPLCTRENIMVAFKGVWTQAFWKAVTAEFLAMLIFVLLSLGSTINWGGTEKPLPVDMVLISLCFGLSIATMVQCFGHISGGHINPAVTVAMVCTRKISIAKSVFYIAAQCLGAIIGAGILYLVTPPSVVGGLGVTMVHGNLTAGHGLLVELIITFQLVFTIFASCDSKRTDVTASIALAIGFSVAIGHLFAINYTGASMNPARSFGPAVIMGNWENHWIYWVGPIIGAVLAGGLYEYVFCPDV[… about 60 residues …]
notes: as for B5
B8: AQP4 S188A, C-terminal GFP fusion (natural protein, human)
chain: MSDRPTARRWGKCGPLCTRENIMVAFKGVWTQAFWKAVTAEFLAMLIFVLLSLGSTINWGGTEKPLPVDMVLISLCFGLSIATMVQCFGHISGGHINPAVTVAMVCTRKISIAKSVFYIAAQCLGAIIGAGILYLVTPPSVVGGLGVTMVHGNLTAGHGLLVELIITFQLVFTIFASCDSKRTDVTGAIALAIGFSVAIGHLFAINYTGASMNPARSFGPAVIMGNWENHWIYWVGPIIGAVLAGGLYEYVFCPDV[… about 60 residues …]
notes: as for B5
B9: AQP4 S188D (phosphomimetic), C-terminal GFP fusion (natural protein, human)
chain: MSDRPTARRWGKCGPLCTRENIMVAFKGVWTQAFWKAVTAEFLAMLIFVLLSLGSTINWGGTEKPLPVDMVLISLCFGLSIATMVQCFGHISGGHINPAVTVAMVCTRKISIAKSVFYIAAQCLGAIIGAGILYLVTPPSVVGGLGVTMVHGNLTAGHGLLVELIITFQLVFTIFASCDSKRTDVTGDIALAIGFSVAIGHLFAINYTGASMNPARSFGPAVIMGNWENHWIYWVGPIIGAVLAGGLYEYVFCPDV[… about 60 residues …]
notes: as for B5
B10: AQP4 loop D2 compound mutant (D184A/V185A/T186A/G187A/S188A), C-terminal GFP fusion (natural protein, human)
chain: MSDRPTARRWGKCGPLCTRENIMVAFKGVWTQAFWKAVTAEFLAMLIFVLLSLGSTINWGGTEKPLPVDMVLISLCFGLSIATMVQCFGHISGGHINPAVTVAMVCTRKISIAKSVFYIAAQCLGAIIGAGILYLVTPPSVVGGLGVTMVHGNLTAGHGLLVELIITFQLVFTIFASCDSKRTAAAAAIALAIGFSVAIGHLFAINYTGASMNPARSFGPAVIMGNWENHWIYWVGPIIGAVLAGGLYEYVFCPDV[… about 60 residues …]
notes: aquaporin-4 (AQP4), human cDNA in pDEST47; M1 isoform (323 residues); 184-DVTGS-188 changed to alanines; source: HEK293, transiently transfected, in Triton X-100 lysate; not shown: GFP, C-terminal, kept
B11: AQP4 L50A, C-terminal GFP fusion (natural protein, human)
chain: MSDRPTARRWGKCGPLCTRENIMVAFKGVWTQAFWKAVTAEFLAMLIFVALSLGSTINWGGTEKPLPVDMVLISLCFGLSIATMVQCFGHISGGHINPAVTVAMVCTRKISIAKSVFYIAAQCLGAIIGAGILYLVTPPSVVGGLGVTMVHGNLTAGHGLLVELIITFQLVFTIFASCDSKRTDVTGSIALAIGFSVAIGHLFAINYTGASMNPARSFGPAVIMGNWENHWIYWVGPIIGAVLAGGLYEYVFCPDV[… about 60 residues …]
notes: as for B5
B12: AQP4 L51A, C-terminal GFP fusion (natural protein, human)
chain: MSDRPTARRWGKCGPLCTRENIMVAFKGVWTQAFWKAVTAEFLAMLIFVLASLGSTINWGGTEKPLPVDMVLISLCFGLSIATMVQCFGHISGGHINPAVTVAMVCTRKISIAKSVFYIAAQCLGAIIGAGILYLVTPPSVVGGLGVTMVHGNLTAGHGLLVELIITFQLVFTIFASCDSKRTDVTGSIALAIGFSVAIGHLFAINYTGASMNPARSFGPAVIMGNWENHWIYWVGPIIGAVLAGGLYEYVFCPDV[… about 60 residues …]
notes: as for B5
B13: AQP4 I57A, C-terminal GFP fusion (natural protein, human)
chain: MSDRPTARRWGKCGPLCTRENIMVAFKGVWTQAFWKAVTAEFLAMLIFVLLSLGSTANWGGTEKPLPVDMVLISLCFGLSIATMVQCFGHISGGHINPAVTVAMVCTRKISIAKSVFYIAAQCLGAIIGAGILYLVTPPSVVGGLGVTMVHGNLTAGHGLLVELIITFQLVFTIFASCDSKRTDVTGSIALAIGFSVAIGHLFAINYTGASMNPARSFGPAVIMGNWENHWIYWVGPIIGAVLAGGLYEYVFCPDV[… about 60 residues …]
notes: as for B5
B14: AQP4 L72A, C-terminal GFP fusion (natural protein, human)
chain: MSDRPTARRWGKCGPLCTRENIMVAFKGVWTQAFWKAVTAEFLAMLIFVLLSLGSTINWGGTEKPLPVDMVAISLCFGLSIATMVQCFGHISGGHINPAVTVAMVCTRKISIAKSVFYIAAQCLGAIIGAGILYLVTPPSVVGGLGVTMVHGNLTAGHGLLVELIITFQLVFTIFASCDSKRTDVTGSIALAIGFSVAIGHLFAINYTGASMNPARSFGPAVIMGNWENHWIYWVGPIIGAVLAGGLYEYVFCPDV[… about 60 residues …]
notes: as for B5
B15: AQP4 L79A, C-terminal GFP fusion (natural protein, human)
chain: MSDRPTARRWGKCGPLCTRENIMVAFKGVWTQAFWKAVTAEFLAMLIFVLLSLGSTINWGGTEKPLPVDMVLISLCFGASIATMVQCFGHISGGHINPAVTVAMVCTRKISIAKSVFYIAAQCLGAIIGAGILYLVTPPSVVGGLGVTMVHGNLTAGHGLLVELIITFQLVFTIFASCDSKRTDVTGSIALAIGFSVAIGHLFAINYTGASMNPARSFGPAVIMGNWENHWIYWVGPIIGAVLAGGLYEYVFCPDV[… about 60 residues …]
notes: as for B5

Biological target: the molecule itself
Assay: FRET or BRET; sensitized-emission FRET between Venus- and mTurquoise2-tagged copies co-transfected into live HEK293 cells; apparent FRET efficiency normalised to acceptor emission

Protein | apparent FRET efficiency
B1 | 44.2%
B2 | 17%
B3 | 20%

Biological target: the molecule itself
Assay: native gel or EMSA; BN-PAGE (8% bis-tris gel, pH 7.0, on ice) of whole-cell lysates of transfected HEK293 cells in 1% Triton X-100 BN lysis buffer, then immunoblot (anti-AQP4 or anti-GFP) and densitometry; self-association: tetramer, dimer, monomer bands

Protein | stoichiometry N
B4 | 4

Biological target: the molecule itself
Assay: as above
Remark: another data set of the same source

Protein | stoichiometry N | percent of the protein as dimers
B5 | 4 | –
B6 | 4 | –
B7 | 4 | –
B8 | 4 | –
B9 | 4 | –
B10 | – | 67%
B11 | 4 | –
B12 | 4 | –
B13 | 4 | –
B14 | 4 | –
B15 | 4 | –
